# The supplement of paper PMC8728848
# Some of the results follow.
# What was measured:
# Assay in all cases: glycan array binding signal (z-score within array); higher = stronger binding
# Settings in all cases: glycan notation: IUPAC condensed, linker removed
# [1] = molecular target: GlcNAc(b1-3)Gal(b1-4)GlcNAc(b1-6)[GlcNAc(b1-3)]Gal(b1-4)GlcNAc
# In short: (§1)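 The binding signal is a Z-score computed within each array. Data were drawn from 3228 arrays in the Consortium for Functional Glycomics database, restricted to those with a known protein sequence. Scores were averaged over arrays of the same protein sequence at different concentrations or buffers, and over linkers, and negative values can be taken as non-binding.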
# GlcNAc(b1-3)GalNAc = molecular target: GlcNAc(b1-3)GalNAc
# In short: as §1
# GlcNAc(b1-3)Man = molecular target: GlcNAc(b1-3)Man
# In short: as §1
# [2] = molecular target: GlcNAc(b1-3)[GlcNAc(b1-4)][GlcNAc(b1-6)]GlcNAc
# In short: as §1
# [3] = molecular target: GlcNAc(b1-3)[GlcNAc(b1-6)]Gal(b1-4)GlcNAc
# In short: as §1
# [4] = molecular target: GlcNAc(b1-3)[GlcNAc(b1-6)]GalNAc
# In short: as §1
# [5] = molecular target: GlcNAc(b1-3)[GlcNAc(b1-6)]GlcNAc(b1-4)GlcNAc
# In short: as §1
# [6] = molecular target: GlcNAc(b1-4)Gal(b1-4)GlcNAc
# In short: as §1
# GlcNAc(b1-4)GlcNAc = molecular target: GlcNAc(b1-4)GlcNAc
# In short: as §1
# [7] = molecular target: GlcNAc(b1-4)GlcNAc(b1-4)GlcNAc
# In short: as §1
# [8] = molecular target: GlcNAc(b1-4)GlcNAc(b1-4)GlcNAc(b1-4)GlcNAc(b1-4)GlcNAc
# In short: as §1
# [9] = molecular target: GlcNAc(b1-4)GlcNAc(b1-4)GlcNAc(b1-4)GlcNAc(b1-4)GlcNAc(b1-4)GlcNAc
# In short: as §1
# [10] = molecular target: GlcNAc(b1-4)[GlcNAc(b1-6)]GalNAc
# In short: as §1
# [11] = molecular target: GlcNAc(b1-6)Gal(b1-4)GlcNAc
# In short: as §1
# GlcNAc(b1-6)GalNAc = molecular target: GlcNAc(b1-6)GalNAc
# In short: as §1
# [12] = molecular target: GlcNAc6S(b1-3)Gal(b1-4)GlcNAc
# In short: as §1
# Kdn(a2-3)Gal(b1-3)GalNAc = molecular target: Kdn(a2-3)Gal(b1-3)GalNAc
# In short: as §1
# Kdn(a2-3)Gal(b1-3)GlcNAc = molecular target: Kdn(a2-3)Gal(b1-3)GlcNAc
# In short: as §1
# Kdn(a2-3)Gal(b1-4)Glc = molecular target: Kdn(a2-3)Gal(b1-4)Glc
# In short: as §1
# Kdn(a2-3)Gal(b1-4)GlcNAc = molecular target: Kdn(a2-3)Gal(b1-4)GlcNAc
# In short: as §1
# [13] = molecular target: Kdn(a2-3)Gal(b1-4)[Fuc(a1-3)]GlcNAc
# In short: as §1
# Kdn(a2-6)Gal(b1-4)GlcNAc = molecular target: Kdn(a2-6)Gal(b1-4)GlcNAc
# In short: as §1
# [14] = molecular target: Man(a1-2)Man(a1-2)Man(a1-3)Man
# In short: as §1
# [15] = molecular target: Man(a1-2)Man(a1-2)Man(a1-6)[Man(a1-3)]Man
# In short: as §1
# Man(a1-2)Man(a1-3)Man = molecular target: Man(a1-2)Man(a1-3)Man
# In short: as §1
# [16] = molecular target: Man(a1-2)Man(a1-3)[Man(a1-2)Man(a1-6)]Man
# In short: as §1
# [17] = molecular target: Man(a1-2)Man(a1-3)[Man(a1-2)Man(a1-6)]Man(a1-6)[Man(a1-2)Man(a1-2)Man(a1-3)]Man
# In short: as §1
# [18] = molecular target: Man(a1-2)Man(a1-3)[Man(a1-2)Man(a1-6)]Man(a1-6)[Man(a1-2)Man(a1-2)Man(a1-3)]Man(b1-4)GlcNAc(b1-4)GlcNAc
# In short: as §1
# [19] = molecular target: Man(a1-2)Man(a1-3)[Man(a1-6)]Man(a1-6)[Man(a1-2)Man(a1-3)]Man(b1-4)GlcNAc(b1-4)GlcNAc
# In short: as §1
# [20] = molecular target: Man(a1-2)Man(a1-6)[Man(a1-3)]Man(a1-6)[Man(a1-2)Man(a1-2)Man(a1-3)]Man
# In short: as §1
# [21] = molecular target: Man(a1-2)Man(a1-6)[Man(a1-3)]Man(a1-6)[Man(a1-2)Man(a1-2)Man(a1-3)]Man(b1-4)GlcNAc(b1-4)GlcNAc
# In short: as §1
# Man(a1-3)[Man(a1-6)]Man = molecular target: Man(a1-3)[Man(a1-6)]Man
# In short: as §1
# [22] = molecular target: Man(a1-3)[Man(a1-6)]Man(a1-6)[Man(a1-2)Man(a1-3)]Man(b1-4)GlcNAc(b1-4)GlcNAc
# In short: as §1
# [23] = molecular target: Man(a1-3)[Man(a1-6)]Man(a1-6)[Man(a1-3)]Man
# In short: as §1
# [24] = molecular target: Man(a1-3)[Man(a1-6)]Man(a1-6)[Man(a1-3)]Man(b1-4)GlcNAc(b1-4)GlcNAc
# In short: as §1
# [25] = molecular target: Man(a1-3)[Man(a1-6)]Man(b1-4)GlcNAc(b1-4)GlcNAc
# In short: as §1
# [26] = molecular target: Man(a1-3)[Man(a1-6)]Man(b1-4)GlcNAc(b1-4)[Fuc(a1-6)]GlcNAc
# In short: as §1
binder,measurement,setting,value
GSL-I (Griffonia simplicifolia) (protein) FNLPNFWSDVKDNIIFQGDANTTAGTLQLCKTNQYGNPLQYRAGRALYSDPVQLWDNKTGSVASFYTEFTFFLKITGDGPADGLAFFLAPPDSDVKDAGAYLGLFNKSTATQPSKNQVVAVEFDTWKNTDFPEPSYRHIGINVNSIVSVATKRWEDSDIFSGKIATARISYDGSAKILTVVLSYPDGADYILSHSVDLSKNLPNPIRVGISASTGANQFLTVYVLSWRFSSALQSTSVNAAMGPEIIRTVV,glycan array binding signal (z-score),[1],-0.255
same,glycan array binding signal (z-score),GlcNAc(b1-3)GalNAc,-0.23
same,glycan array binding signal (z-score),GlcNAc(b1-3)Man,-0.193
same,glycan array binding signal (z-score),[2],-0.251
same,glycan array binding signal (z-score),[3],-0.218
same,glycan array binding signal (z-score),[4],-0.21
same,glycan array binding signal (z-score),[5],-0.32
same,glycan array binding signal (z-score),[6],-0.258
same,glycan array binding signal (z-score),GlcNAc(b1-4)GlcNAc,-0.174
same,glycan array binding signal (z-score),[7],-0.114
same,glycan array binding signal (z-score),[8],0.002
same,glycan array binding signal (z-score),[9],-0.165
same,glycan array binding signal (z-score),[10],-0.229
same,glycan array binding signal (z-score),[11],-0.222
same,glycan array binding signal (z-score),GlcNAc(b1-6)GalNAc,-0.241
same,glycan array binding signal (z-score),[12],-0.22
same,glycan array binding signal (z-score),Kdn(a2-3)Gal(b1-3)GalNAc,-0.069
same,glycan array binding signal (z-score),Kdn(a2-3)Gal(b1-3)GlcNAc,-0.169
same,glycan array binding signal (z-score),Kdn(a2-3)Gal(b1-4)Glc,-0.201
same,glycan array binding signal (z-score),Kdn(a2-3)Gal(b1-4)GlcNAc,-0.133
same,glycan array binding signal (z-score),[13],-0.176
same,glycan array binding signal (z-score),Kdn(a2-6)Gal(b1-4)GlcNAc,-0.152
same,glycan array binding signal (z-score),[14],-0.262
same,glycan array binding signal (z-score),[15],-0.208
same,glycan array binding signal (z-score),Man(a1-2)Man(a1-3)Man,-0.209
same,glycan array binding signal (z-score),[16],-0.135
same,glycan array binding signal (z-score),[17],0.069
same,glycan array binding signal (z-score),[18],-0.033
same,glycan array binding signal (z-score),[19],-0.203
same,glycan array binding signal (z-score),[20],-0.13
same,glycan array binding signal (z-score),[21],-0.302
same,glycan array binding signal (z-score),Man(a1-3)[Man(a1-6)]Man,-0.245
same,glycan array binding signal (z-score),[22],0.411
same,glycan array binding signal (z-score),[23],-0.11
same,glycan array binding signal (z-score),[24],-0.232
same,glycan array binding signal (z-score),[25],-0.151
same,glycan array binding signal (z-score),[26],-0.305
